# Experimental data from IntAct's records for PubMed 24316379.
# B1: Myeloid differentiation primary response protein MyD88 (Homo sapiens), Q99836-1 (parent)
# chain: MAAGGPGAGSAAPVSSTSSLPLAALNMRVRRRLSLFLNVRTQVAADWTALAEEMDFEYLEIRQLETQADPTGRLLDAWQGRPGASVGRLLELLTKLGRDDVLLELGPSIEEDCQKYILKQQQEEAEKPLQVAAVDSSVPRTAELAGITTLDDPLGHMPERFDAFICYCPSDIQFVQEMIRQLEQTNYRLKLCVSDRDVLPGTCVWSIASELIEKRCRRMVVVVSDDYLQSKECDFQTKFALSLSPGAHQKRLIPIKYKAMKKEFPSILRFITVCDYTNPCTKSWFWTRLAKALSLP
# B2: Myeloid differentiation primary response protein MyD88 (Homo sapiens), Q99836-1 (parent)
# chain: B1 chain
# partner: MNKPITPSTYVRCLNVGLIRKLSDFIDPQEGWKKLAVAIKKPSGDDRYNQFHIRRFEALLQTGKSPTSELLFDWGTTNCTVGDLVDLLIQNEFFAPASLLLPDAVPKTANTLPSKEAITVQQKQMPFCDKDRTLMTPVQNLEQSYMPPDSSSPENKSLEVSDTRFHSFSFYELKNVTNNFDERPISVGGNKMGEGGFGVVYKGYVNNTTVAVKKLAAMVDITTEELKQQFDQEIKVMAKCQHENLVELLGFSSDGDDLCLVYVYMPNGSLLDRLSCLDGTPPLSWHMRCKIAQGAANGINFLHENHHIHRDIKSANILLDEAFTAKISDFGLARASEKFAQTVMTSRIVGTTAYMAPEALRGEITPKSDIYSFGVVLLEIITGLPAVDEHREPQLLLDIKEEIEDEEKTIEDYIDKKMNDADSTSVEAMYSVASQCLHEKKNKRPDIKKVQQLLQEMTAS
# Variants of: B1
# Conditions: with p58753-2 TIRAP
row,effect of a mutation on the interaction,Variant
1,decreasing interaction strength,R196C

# Variants of: B2
# Conditions: with irak4_human IRAK4, Q9NWZ3
row,effect of a mutation on the interaction,Variant
1,disrupting interaction strength,R98C
